In this assay the test system is nude mice, HT29 intrarenal xenograft, tumor weight T/C. Put plainly: NCI In Vivo Anticancer Drug Screen. Data for tumor model HT29;CX-1 Human Adenocarcinoma (MER+) (intrarenal inoculation) in NU/NU Swiss (nude) mice. Particulars: endpoint: mean tumor weight change, higher = larger tumour. The method, then: The antitumor activity of compounds was measured in mice bearing transplantable tumors. Survival or tumor size were measured and the results are expressed as the measurement made in the treated group (T) divided by the measurement made in the vehicle treated control group (C). The tumor model used in this assay is HT29;CX-1 Human Adenocarcinoma (MER+) (intrarenal inoculation) in NU/NU Swiss (nude) mice

[1] abbreviates: dose: 100.0 mg/kg/injection, schedule: Q01DX010 (sc), vehicle: Klucel (hydroxypropylcellulose) (HPC).
Setting [2] is: dose: 2.0 mg/kg/injection, schedule: Q01DX010 (sc), vehicle: saline.

Molecules are shown by their SMILES. Records with an inconclusive call do not appear. Certain results were filed several times, with different values. The other results are left out here. The source may hold further records. The values listed for one entry are repeats in other runs, samples, wells, individuals or studies. Starred links: 1 amine or outer side, 2 acyl side, 3 side chain; linkers in the order of their positions; H or OH if unused. Positions of bridges follow the written chain, without caps; N, C: chain ends. Non-standard residues stand in square brackets, D forms with d. Residues, ends and D or L forms follow the SMILES beside them. Chains are numbered I, II in the order given. Actinocin(9to1) = Cc1c2oc3c(C)ccc(C(=O)[*:1])c3nc-2c(C(=O)[*:2])c(N)c1=O; aThr = C[C@H](O)[C@H](N)C(=O)O; NMeV = CN[C@H](C(=O)O)C(C)C; Sar = CNCC(=O)O

For `Oc1c(Cl)cc(Cl)cc1C1N2CCCCC2C2c3cccn3-c3ccccc3N21` (stereo not drawn), for the setting “dose: 75.0 mg/kg/injection, schedule: Q04DX004 (sc), vehicle: Klucel (hydroxypropylcellulose) (HPC)”, the T/C was 38 % of control, 46 % of control, 150 % of control. Regarding `COc1cccc2c1C(=O)c1c(O)c3c(c(O)c1C2=O)C[C@@](O)(C(C)=O)C[C@@H]3OC1CC(N(Cc2ccccc2)Cc2ccccc2)C(O)C(C)O1` (stereo partly drawn), the T/C (dose: 125.0 mg/kg/injection, schedule: Q04DX004 (sc), vehicle: water) is 78 % of control and 113 % of control.

For the compound `COc1cc2cc(c1Cl)N(C)C(=O)CC(OC(=O)C(C)C)C1(C)OC1C(C)C1CC(O)(NC(=O)O1)C(OC)/C=C/C=C(C)C2` (stereo not drawn), the T/C runs as follows: (dose: 62.5 micrograms/kg/injection, schedule: Q04DX004 (sc), vehicle: saline + alcohol) 59 % of control, 66 % of control, 156 % of control; (dose: 125.0 micrograms/kg/injection, schedule: Q04DX004 (sc), vehicle: saline + alcohol) 42 % of control and 79 % of control; (dose: 250.0 micrograms/kg/injection, schedule: Q04DX004 (sc), vehicle: saline + alcohol) 4 % of control, 38 % of control, 44 % of control. As to `CO[C@@]12[C@H](COC(N)=O)C3=C(C(=O)C(C)=C(N)C3=O)N1C[C@@H]1N[C@@H]12`, the T/C is, setting by setting: (dose: 1.25 mg/kg/injection, schedule: Q04DX004 (sc), vehicle: saline) 53 % of control and 108 % of control; (dose: 2.5 mg/kg/injection, schedule: Q04DX004 (sc), vehicle: saline) -37 % of control and 11 % of control.

Regarding `COC(=O)Nc1cccc(-c2nc3ccc(NC(=O)OC)cc3c(=O)n2-c2ccccc2)c1`, the T/C by setting is: (dose: 50.0 mg/kg/injection, schedule: Q01DX010 (sc), vehicle: Klucel (hydroxypropylcellulose) (HPC)) 49 % of control, 104 % of control, 158 % of control; under setting [1], -1 % of control and 92 % of control; (dose: 200.0 mg/kg/injection, schedule: Q01DX010 (sc), vehicle: Klucel (hydroxypropylcellulose) (HPC)) 17 % of control and 55 % of control. For the compound `CC(C)CCCCCCCCCCCCC(=O)NCC(=O)NC1C(C)OC(Nc2ncnc3nc[nH]c23)C(O)C1O` (stereo not drawn), the T/C runs as follows: (dose: 4.0 mg/kg/injection, schedule: Q01DX010 (sc), vehicle: distilled water + Tween-80) -51 % of control and 18 % of control; (dose: 4.0 mg/kg/injection, schedule: Q01DX010 (sc), vehicle: saline with Tween-80) -52 % of control and -12 % of control. As for `N#Cc1cn(C2OC(CO)C(O)C2O)c2ncnc(N)c12` (stereo not drawn), for the setting “dose: 0.5 mg/kg/injection, schedule: Q01DX010 (sc), vehicle: saline”, the T/C is 43 % of control and 104 % of control.

For `CN(C)c1nc(N(C)C)nc(N(C)C)n1`, the T/C is on record as -10 % of control, 78 % of control, 94 % of control (dose: 60.0 mg/kg/injection, schedule: Q01DX010 (sc), vehicle: saline with Tween-80) and 24 % of control, 31 % of control, 91 % of control (dose: 120.0 mg/kg/injection, schedule: Q01DX010 (sc), vehicle: saline with Tween-80). Take `CC(C)[NH-].CC(C)[NH-].O.O.[Cl][Pt+2][Cl]`: for the setting “dose: 25.0 mg/kg/injection, schedule: Q01DX010 (sc), vehicle: dextrose”, the T/C was -56 % of control and -14 % of control. With `N[C@@H](Cc1ccc(N(CCCl)CCCl)cc1)C(=O)O`, the T/C (dose: 1.0 mg/kg/injection, schedule: Q01DX010 (sc), vehicle: saline) was 10 % of control and 83 % of control; the T/C under setting [2] is recorded as 27 % of control, 56 % of control, 64 % of control; the T/C (dose: 4.0 mg/kg/injection, schedule: Q01DX010 (sc), vehicle: saline) was -27 % of control and 3 % of control. With `O=C(O)C1(C(=O)O)CCC1.[NH2-].[NH2-].[Pt+2]`, the T/C (dose: 12.5 mg/kg/injection, schedule: Q01DX010 (sc), vehicle: dextrose) was 39 % of control and 97 % of control. Turning to `O=C1C(=O)c2ccccc2C(O)=C1CC=C(Cl)Cl`, the T/C (dose: 200.0 mg/kg/injection, schedule: Q01DX010 (sc), vehicle: water) was 53 % of control and 102 % of control. For the compound `COC1C(O)C(C)OC(OC2C(Oc3cccc4c(O)c5c(=O)oc6ccc(C)c7c(=O)oc(c34)c5c67)OC(C)C(O)C2O)C1O` (stereo not drawn), the T/C (dose: 800.0 mg/kg/injection, schedule: Q01DX010 (sc), vehicle: Klucel (hydroxypropylcellulose) (HPC)) is 17 % of control and 53 % of control. With `O=C1C=CN(C2OC(CO)C(O)C2O)C(=O)C1` (stereo not drawn), the T/C (dose: 25.0 mg/kg/injection, schedule: Q01DX010 (sc), vehicle: saline) was 65 % of control and 94 % of control. For `Cc1c2oc3c(C)ccc(C(=O)N[C@@H]4C(=O)N[C@H](C(C)C)C(=O)N5CCC[C@H]5C(=O)N(C)CC(=O)N(C)[C@@H](C(C)C)C(=O)O[C@H]4C)c3nc-2c(C(=O)N[C@@H]2C(=O)N[C@H](C(C)C)C(=O)N3CCC[C@H]3C(=O)N(C)CC(=O)N(C)[C@@H](C(C)C)C(=O)O[C@H]2C)c(N)c1=O` (I: [aThr][dV]P[Sar][NMeV] / II: [aThr][dV]P[Sar][NMeV]; ester I:1-I:C, II:1-II:C; linker I:N-II:N via Actinocin(9to1)), the T/C is, setting by setting: (dose: 50.0 micrograms/kg/injection, schedule: Q01DX010 (sc), vehicle: saline) 58 % of control and 121 % of control; (dose: 100.0 micrograms/kg/injection, schedule: Q01DX010 (sc), vehicle: saline) 19 % of control and 49 % of control; (dose: 200.0 micrograms/kg/injection, schedule: Q01DX010 (sc), vehicle: saline) -21 % of control and 10 % of control. For `OC(C1CO1)C(O)C1CO1` (stereo not drawn), under setting [2], the T/C is 81 % of control and 159 % of control.

As for `C=CCNc1ccc(C)cc1`, the T/C under setting [1] was 29 % of control and 99 % of control.

Values taken from PubChem BioAssay AID206 (DTP/NCI, 2004).
